Experimental data published in the supplement of paper PMC7826260.
The list shows a part of the results. One pool of 16,384 single-stranded DNAs met each Rep nickase domain in vitro at 3 µM enzyme and 37 °C for 1 h; the strands have 90 letters, of which the middle is given. Numbers give uncut DNA relative to the enzyme-free pool, as log2; more negative means more cut, near 0 not cut, and no call is made. The scaling is to total reads; where an enzyme cuts many sequences, the uncut ones exceed 0.

Legend:
Test in all cases: uncleaved DNA left, log2 of reads against the no-enzyme library (log2 ratio); higher = less cleavage (more negative = more Rep cleavage of the k-mer); sequences stand for … in CTCGTCCG…ACCGGAGA
[1] = system: T1, Rep nickase domain of Muscovy duck circovirus
T1 sequence (protein, residues 1-111, tag omitted): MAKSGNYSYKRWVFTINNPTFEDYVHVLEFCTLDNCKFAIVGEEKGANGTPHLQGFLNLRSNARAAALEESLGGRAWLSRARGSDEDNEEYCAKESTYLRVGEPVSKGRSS
Method: (§1)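 A pool of 90-nt single-stranded DNAs with seven random bases just before the constant AC of the nick site (name = the seven bases) was cut by 3 µM recombinant His6-SUMO-tagged Rep nickase domain (300 nM DNA, 50 mM HEPES pH 8.0, 50 mM NaCl, 1 mM MnCl2, 1 h, 37 °C, three replicates). Uncut DNA was amplified and sequenced.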

[2] = system: T2, Rep nickase domain of banana bunchy top virus
T2 sequence (protein, residues 1-94, tag omitted): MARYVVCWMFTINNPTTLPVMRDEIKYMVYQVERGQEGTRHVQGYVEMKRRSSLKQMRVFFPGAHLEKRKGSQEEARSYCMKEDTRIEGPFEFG
Method: as §1

[3] = system: T3, Rep nickase domain of cabbage leaf curl virus
T3 sequence (protein, residues 1-116, tag omitted): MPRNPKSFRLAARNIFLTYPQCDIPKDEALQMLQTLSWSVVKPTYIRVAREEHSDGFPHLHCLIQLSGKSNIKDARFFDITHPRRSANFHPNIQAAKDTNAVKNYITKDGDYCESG
Method: as §1

[4] = system: T4, Rep nickase domain of chickpea chlorotic dwarf virus
T4 sequence (protein, residues 1-124, tag omitted): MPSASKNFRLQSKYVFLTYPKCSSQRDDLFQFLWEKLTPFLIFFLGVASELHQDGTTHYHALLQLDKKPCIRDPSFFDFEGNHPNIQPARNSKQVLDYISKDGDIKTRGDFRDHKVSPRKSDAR
Method: as §1

[5] = system: T5, Rep nickase domain of faba bean necrotic yellows virus
T5 sequence (protein, residues 1-98, tag omitted): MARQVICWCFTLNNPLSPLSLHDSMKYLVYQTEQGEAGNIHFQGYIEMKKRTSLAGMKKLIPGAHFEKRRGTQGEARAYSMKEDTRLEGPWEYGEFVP
Method: as §1

[6] = system: T6, Rep nickase domain of maize striate mosaic virus
T6 sequence (protein, residues 1-117, tag omitted): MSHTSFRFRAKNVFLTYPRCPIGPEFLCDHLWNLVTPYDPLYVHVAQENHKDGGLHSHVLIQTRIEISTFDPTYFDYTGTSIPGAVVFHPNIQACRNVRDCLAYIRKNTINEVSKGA
Method: as §1

[7] = system: T7, Rep nickase domain of porcine circovirus 2
T7 sequence (protein, residues 2-116, tag omitted): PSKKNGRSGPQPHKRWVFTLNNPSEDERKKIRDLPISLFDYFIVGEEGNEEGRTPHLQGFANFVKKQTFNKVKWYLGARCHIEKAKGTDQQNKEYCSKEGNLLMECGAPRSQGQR
Method: as §1

[8] = system: T8, Rep nickase domain of tomato golden mosaic virus
T8 sequence (protein, residues 1-124, tag omitted): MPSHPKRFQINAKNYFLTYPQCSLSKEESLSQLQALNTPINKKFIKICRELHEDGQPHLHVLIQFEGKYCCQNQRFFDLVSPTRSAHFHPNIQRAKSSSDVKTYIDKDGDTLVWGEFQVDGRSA
Method: as §1

[9] = system: T9, Rep nickase domain of tomato yellow leaf curl virus
T9 sequence (protein, residues 1-136, tag omitted): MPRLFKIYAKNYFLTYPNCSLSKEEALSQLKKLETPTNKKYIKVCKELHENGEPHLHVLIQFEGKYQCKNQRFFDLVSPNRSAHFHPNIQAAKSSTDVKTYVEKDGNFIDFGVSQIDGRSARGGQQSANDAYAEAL
Method: as §1

[10] = system: T10, Rep nickase domain of wheat dwarf virus
T10 sequence (protein, residues 1-137, tag omitted): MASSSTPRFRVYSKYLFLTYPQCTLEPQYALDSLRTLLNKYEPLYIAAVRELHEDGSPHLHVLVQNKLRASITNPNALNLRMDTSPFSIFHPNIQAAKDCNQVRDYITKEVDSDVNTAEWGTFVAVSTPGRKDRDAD
Method: as §1

| Sequence | uncleaved DNA left (log2) [1] | uncleaved DNA left (log2) [2] | uncleaved DNA left (log2) [3] | uncleaved DNA left (log2) [4] | uncleaved DNA left (log2) [5] | uncleaved DNA left (log2) [6] | uncleaved DNA left (log2) [7] | uncleaved DNA left (log2) [8] | uncleaved DNA left (log2) [9] | uncleaved DNA left (log2) [10] |
| --- | --- | --- | --- | --- | --- | --- | --- | --- | --- | --- |
| AGAGGTC | 0.165 | -0.0318 | 0.274 | 0.78 | -0.00469 | 0.631 | 0.0316 | 0.107 | -0.113 | -0.0159 |
| TAATCCG | 0.0419 | -0.00231 | -1.51 | -2.02 | -0.0145 | -1.17 | 0.0973 | -0.078 | -0.0443 | -0.223 |
| GCATGCA | 0.0796 | -0.0436 | -0.524 | -0.529 | 0.0952 | -1 | 0.0283 | -0.00557 | 0.141 | -0.0487 |
| CAAGCGT | -0.0836 | -0.0833 | -0.893 | -0.942 | -0.0979 | -1.01 | -0.0608 | -0.188 | 0.0152 | -0.164 |
| TTTAATC | 0.0306 | 0.0316 | 0.218 | 0.119 | -0.053 | -0.334 | 0.021 | 0.0519 | 0.0297 | 0.171 |
| ACGCTCG | -0.0375 | 0.196 | -0.707 | -0.0266 | 0.0237 | -0.777 | 0.171 | -0.000252 | -0.0491 | 0.0154 |
| ATACAAG | 0.172 | 0.0558 | -0.793 | -0.455 | 0.0572 | -1.18 | 0.187 | 0.0971 | -0.00787 | -0.0557 |
| GTATCAG | 0.0857 | 0.0461 | -0.211 | -0.149 | 0.0525 | -0.747 | 0.115 | 0.101 | 0.000341 | 0.0125 |
| CTTAGAG | 0.16 | 0.104 | -0.49 | -0.452 | 0.14 | -1.03 | 0.24 | 0.161 | 0.084 | 0.172 |
| TTAGACG | 0.0902 | -0.0566 | -0.515 | -0.715 | 0.105 | -0.963 | 0.11 | -0.0304 | 0.0834 | -0.0163 |
| CAACTTT | -0.228 | -0.19 | -2.64 | -3.1 | -0.188 | -1.41 | -1.23 | -0.503 | -0.0454 | -0.985 |
| CCACAGA | 0.00113 | -0.0732 | -0.14 | -0.53 | 0.195 | -1.03 | 0.134 | 0.108 | -0.0777 | 0.0618 |
| CAAAAGG | 0.0552 | 0.0134 | 0.165 | 0.598 | 0.0405 | -0.232 | 0.108 | 0.0775 | -0.112 | 0.0106 |
| CGGGAGT | -0.0177 | -0.202 | 0.374 | 1.33 | -0.13 | 1.59 | 0.112 | -0.232 | -0.201 | 0.0124 |
| CCCATCT | -0.0216 | -0.024 | -0.186 | -2.14 | -0.094 | -0.822 | -0.142 | -0.0691 | -0.102 | 0.0112 |
| ATTGGCA | 0.0323 | -0.00658 | -0.447 | -0.745 | -0.116 | -1.05 | -0.0936 | -0.0549 | 0.0306 | -0.137 |
| AGTCCGA | -0.0271 | -0.0449 | -0.0934 | 0.157 | 0.0445 | -0.596 | -0.0426 | -0.102 | 0.0434 | 0.00917 |
| ACATCCT | -0.349 | -0.00243 | -0.235 | -2.13 | 0.0395 | -0.27 | -0.548 | -0.0375 | -0.153 | 0.0551 |
| CTGCCAG | 0.16 | -0.0192 | -0.696 | -0.272 | 0.0731 | -0.916 | 0.0287 | -0.0232 | 0.0442 | -0.00938 |
| TTCACGC | 0.128 | -0.0149 | 0.192 | -0.312 | 0.0653 | -0.217 | 0.136 | -0.0144 | -0.00997 | 0.0427 |
| TTACGTT | 0.107 | -0.0252 | -0.899 | -2.84 | -0.054 | -0.721 | -0.343 | -0.0954 | -0.0556 | -0.584 |
| ATCGAGC | 0.122 | 0.0371 | 0.0965 | 0.406 | 0.102 | -0.589 | 0.236 | 0.0177 | 0.0589 | 0.097 |
| CCGCACG | 0.0973 | -0.0739 | -0.501 | -0.174 | -0.0517 | -0.787 | 0.0897 | -0.0531 | 0.0495 | 0.0199 |
| CCTCGCT | 0.0143 | 0.0408 | -0.415 | -0.997 | -0.0271 | -0.851 | 0.0747 | 0.0569 | -0.108 | -0.0966 |
| AATAGGC | 0.0689 | -0.00517 | 0.195 | 0.272 | 0.0853 | -0.531 | 0.107 | 0.0515 | 0.0333 | -0.0103 |
| CCTATCC | -0.138 | -0.0348 | -0.0171 | -0.182 | -0.0583 | -0.534 | -0.0309 | -0.124 | 0.0349 | 0.0276 |
| AACTTTA | -0.255 | -0.0308 | -0.267 | -2.49 | -0.0481 | -0.782 | -2.94 | -0.0586 | 0.00974 | 0.0546 |
| TGACCAA | 0.0357 | 0.046 | 0.241 | 0.396 | -0.029 | 0.348 | -0.207 | -0.0414 | 0.0583 | 0.156 |
| CAGAGAC | 0.0826 | 0.0135 | 0.348 | 0.858 | -0.0719 | 0.519 | 0.0438 | 0.0402 | -0.0472 | 0.0365 |
| AATAAGA | 0.103 | 0.016 | -0.025 | -0.422 | 0.132 | -0.995 | 0.178 | 0.0424 | -0.00648 | -0.00983 |
